According to the supplement of paper PMC4967469:
By IC50 is meant the dose at which the fit gives 50% viability; a fit beyond the top or the lowest dose is shown as a bound at that dose. AUC, from the same fit, is the share of area under the viability curve across the 256-fold dose range; the more sensitive the line, the further below 1. For part of these data: Any top dose called inferred was derived from the fitted curves, not read from the paper. For part of these data: Where an entry number is given, a second screen of the drug exists; the two often differ.

Key:
Test in all cases: Viability of human cancer cell lines after 72 h of drug (GDSC screen)
[1] = compound: C/C(O)=C(\C#N)C(=O)Nc1cc(Br)ccc1Br [LFM-A13]; details: top dose 16 µM; top dose inferred
Protocol: (§1)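 Human cancer cell lines in 384-well plates, medium with 10% serum, drug for 72 h over a 256-fold dose range (nine 2-fold or five 4-fold steps up to the top dose). Adherent lines were fixed and stained with the nucleic acid dye Syto60, suspension lines read with resazurin; signal relative to control wells, capped at 0 and 100%. One two-parameter sigmoid per drug and line, fitted in a mixed model over all curves with the slope shared within a line.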

[2] = compound: CC(C)c1ccccc1Cc1cc(C(=O)Nc2ccc(S(=O)(=O)c3ccccc3C(C)(C)C)cc2)c(O)c(O)c1O [TW-37]; details: top dose 5 µM
Protocol: as §1

[3] = compound: Cc1cn(-c2cc(NC(=O)c3ccc(C)c(Nc4nccc(-c5cccnc5)n4)c3)cc(C(F)(F)F)c2)cn1 [Nilotinib]; details: top dose 2 µM
Protocol: as §1

[4] = compound: S=C(NCc1ccc2c(c1)OCO2)N1CCN(c2ncnc3c2oc2ccccc23)CC1 [MP470]; details: top dose 20 µM; top dose inferred
Protocol: as §1

[5] = compound: O=S(=O)(c1ccccc1)N(CC(F)(F)F)c1ccc(C(O)(C(F)(F)F)C(F)(F)F)cc1 [T0901317]; details: top dose 10.24 µM; top dose inferred
Protocol: as §1

[6] = compound: Cc1ccc(Nc2cc(-c3cccc(N4C(=O)c5ccccc5C4=O)c3)ncn2)cc1NS(C)(=O)=O [KIN001-270]; details: top dose 20 µM; top dose inferred
Protocol: as §1

[7] = compound: CC(O)(CS(=O)(=O)c1ccc(F)cc1)C(=O)Nc1ccc(C#N)c(C(F)(F)F)c1 [Bicalutamide]; details: top dose inferred
Protocol: as §1

[8] = compound: Nc1ccn([C@@H]2O[C@H](CO)[C@@H](O)C2(F)F)c(=O)n1 [Gemcitabine]; details: top dose 1.024 µM
Protocol: as §1

[9] = compound: CCNC(=O)c1noc(-c2cc(C(C)C)c(O)cc2O)c1-c1ccc(CN2CCOCC2)cc1 [AUY922]; details: top dose 0.256 µM; top dose inferred
Protocol: as §1

[10] = top dose 1.024 µM, screen: GDSC drug entry 150
[11] = top dose 10 µM, screen: GDSC drug entry 1502

Cell Line	AUC [1]	IC50 [1] [µM]	AUC [2]	IC50 [2] [µM]	AUC [3]	IC50 [3] [µM]	AUC [4]	IC50 [4] [µM]	AUC [5]	IC50 [5] [µM]	AUC [6]	IC50 [6] [µM]	AUC [7, 10]	IC50 [7, 10] [µM]	AUC [8]	IC50 [8] [µM]	AUC [9]	IC50 [9] [µM]	AUC [7, 11]	IC50 [7, 11] [µM]
PA-1 (ovary, adherent)	0.989	> 16	0.359	0.14	0.993	> 2	0.973	> 20	0.93	> 10.2	0.885	13.8	0.991	> 1.02	0.143	0.00732	0.549	0.0211		
TGBC11TKB (stomach, adherent)	0.99	> 16	0.823	2.5	0.992	> 2	0.931	> 20	0.988	> 10.2	0.967	> 20	0.99	> 1.02	0.637	0.145	0.899	> 0.256	0.973	> 10
RO82-W-1 (thyroid, adherent)	0.98	> 16	0.533	0.394	0.978	> 2	0.969	> 20	0.978	> 10.2	0.96	> 20	0.962	> 1.02	0.902	> 1.02	0.868	> 0.256	0.972	> 10
CAL-62 (thyroid, adherent)	0.976	> 16	0.531	0.378	0.935	> 2	0.976	> 20	0.982	> 10.2	0.985	> 20	0.988	> 1.02	0.147	0.00552	0.528	0.019	0.985	> 10
U-118-MG (glioma, adherent)	0.976	> 16	0.464	0.246	0.973	> 2	0.948	> 20	0.969	> 10.2	0.981	> 20	0.984	> 1.02	0.822	0.722	0.538	0.0207	0.972	> 10
KU-19-19 (bladder, adherent)	0.918	> 16	0.465	0.252	0.987	> 2	0.937	> 20	0.964	> 10.2	0.987	> 20	0.961	> 1.02	0.962	> 1.02	0.795	0.119		
Calu-3 (lung adenocarcinoma, adherent)	0.955	> 16	0.666	1.03	0.978	> 2	0.983	> 20	0.982	> 10.2	0.97	> 20	0.97	> 1.02	0.358	0.0233	0.646	0.0452	0.972	> 10
MKN28 (stomach, adherent)	0.971	> 16	0.653	0.838	0.982	> 2	0.945	> 20	0.971	> 10.2	0.971	> 20	0.987	> 1.02	0.894	> 1.02	0.439	0.0109		
WM278 (melanoma, adherent)	0.955	> 16	0.576	0.518	0.924	> 2	0.973	> 20	0.984	> 10.2	0.979	> 20	0.984	> 1.02	0.617	0.141	0.49	0.0149	0.978	> 10
HCC1569 (breast, adherent)	0.915	> 16	0.824	4.39	0.977	> 2	0.922	> 20	0.981	> 10.2	0.964	> 20	0.98	> 1.02	0.545	0.0885	0.572	0.0268	0.943	> 10
CS1 (bone, adherent)	0.947	> 16	0.496	0.305	0.984	> 2	0.528	1.51	0.983	> 10.2	0.923	> 20	0.98	> 1.02	0.59	0.117	0.581	0.0274	0.979	> 10
SW948 (large intestine, adherent)	0.982	> 16	0.932	> 5	0.976	> 2	0.91	> 20	0.976	> 10.2	0.963	> 20	0.978	> 1.02	0.921	> 1.02	0.969	> 0.256	0.764	5.35
CAL-33 (head and neck, adherent)	0.971	> 16	0.668	0.92	0.922	> 2	0.922	> 20	0.975	> 10.2	0.979	> 20	0.985	> 1.02	0.171	0.00641	0.552	0.0221		
AU565 (breast, adherent)	0.982	> 16	0.534	0.392	0.979	> 2	0.927	> 20	0.974	> 10.2	0.962	> 20	0.97	> 1.02	0.388	0.0303	0.757	0.0973		
